Screen size: about 360,000 compounds; about 6,000 (1.7%) were called active. This list was built around the results that the source calls inconclusive (neither active nor inactive); the mix of calls is not that of the screen. Calls come from the whole dose curve; as a rule, active = well fitted cell-killing curve with a large enough effect; inconclusive = small, poorly fitted or top-dose-only effect, or effect the other way; inactive = flat fitted curve, though single readings scatter. Potencies of inconclusive entries are left out as doubtful fits.
Experiment: qHTS for induction of synthetic lethality in tumor cells producing 2HG: qHTS for the HT-1080-NT fibrosarcoma cell line;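 note: NT is the 2HG producing partner of a matched IDH1 knockdown line; nearly all actives have a fitted effect of over 55% in size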;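 for activity, negative = less viability: 0% = DMSO-treated cells and -100% = media-only wells without cells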
Settings: HT-1080-NT fibrosarcoma viability, CellTiter-Glo ATP luminescence, 48 h; activity, negative = less viability: at 46.1 µM (top of the series) unless noted
Method in brief: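 HT-1080-NT fibrosarcoma cells (2HG-overproducing), 750 cells/well in RPMI with 5% FBS, dosed after 2 h and incubated 48 h at 37C. CellTiter-Glo luminescence normalized to DMSO and no-cell wells; concentration-response curves fitted and classed.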
Potency is the fitted concentration of half-maximal effect; tags give direction and shape of the fitted curve.

Compound | Potency | activity, negative = less viability
CCn1c(=O)c(C(=O)Nc2nc3ccccc3[nH]2)c(O)c2ccccc21 | active: 7.31 µM | 
CCc1ccc(NCc2ccc(OC)c(Cn3ccnc3)c2)cc1 | inconclusive [cytotoxic, single point] | 
Cc1cc(C)n(CCC(=O)N/N=C/c2c(O)ccc3ccccc23)n1 | inconclusive [cytotoxic, full curve] | 
COc1cccc(NC(=O)[C@H](Cc2c[nH]c3ccccc23)NC(=O)[C@@H]2Cc3ccccc3CN2)c1 | inconclusive [cytotoxic, partial curve] | 
COc1ccc(C(CNC(=O)c2ccc(S(=O)(=O)N(C)C)cc2)N2CCCC2)cc1 (centres undefined) | inactive | 
Cc1ccc(NC(=S)Nc2ccccn2)c(C)c1 | inconclusive [cytotoxic, single point] | 
S=C1SCN(Cc2cccnc2)CN1Cc1cccnc1 | active: 7.31 µM | 
Cc1ccc(NS(=O)(=O)c2ccc(NC(=O)c3cccc(NC(=O)C(C)C)c3)cc2)cc1 | inconclusive [cytotoxic, single point] | 
COC(=O)c1cccc(NC(=O)NC(=O)c2ccccc2Cl)c1 | inconclusive [cytotoxic, single point] | 
Cc1cccc(-n2cc3c(=O)n(C)c(=O)n(C)c3c2)c1 | inconclusive [rising, partial curve, poor fit] | 
Cc1ccc2nc(NC(=O)c3cccc(-c4cc5ccccc5oc4=O)c3)sc2c1 |  | inconclusive: -16.3% [cytotoxic]
O=[N+]([O-])c1ccccc1Oc1ccccc1Cl | inconclusive [rising, single point] | 
COC(=O)c1cc(S(=O)(=O)C(C)C)c(S(C)=O)s1 (centres undefined) | inconclusive [cytotoxic, partial curve, poor fit] | 
C=CCC[C@@H](Cc1ccc(F)cc1)C(=O)OC[C@@H](Cc1c[nH]c2ccccc12)NC(=O)[C@H](CC=C)CC(=O)N[C@H](CO)Cc1ccccc1 | active: 20.6 µM | 
COc1ccccc1C(=O)Nc1nc(-c2cccs2)c(NC(C)=O)s1 | inconclusive [cytotoxic, single point] | 
CCN(CC(=O)Nc1ccccc1OC)C(=O)c1ccc2[nH]c3c(c2c1)CC(C)CC3 (centres undefined) | inconclusive [cytotoxic, single point] | 
Clc1ccc(OCCn2cnc3ccccc32)cc1 | inactive | 
CC1CN(S(=O)(=O)c2ccc(NC(=O)c3cc(-c4ccccc4O)n[nH]3)cc2)CC(C)O1 (centres undefined) | inconclusive [cytotoxic, partial curve, poor fit] | 
CCN(C(=O)c1cc2c(C)nc3ccccc3c2o1)c1cc(Cl)ccc1OC | inconclusive [cytotoxic, single point] | 
COc1ccccc1C(O)c1ncc(-c2cccc(C(F)(F)F)c2)[nH]1 (centres undefined) | inconclusive [cytotoxic, single point] | 
COc1ccc(NC(=O)c2cc(-c3cc(Cl)ccc3OC)n[nH]2)cc1OC | inconclusive [cytotoxic, single point] | 
Cc1ccc2nc(SCC(=O)Nc3ccc(F)cc3F)[nH]c2c1 | inconclusive [cytotoxic, single point] | 

Compound | Potency | activity, negative = less viability
COc1cc(-c2c(-c3cc(OC)c(OC)c(OC)c3)noc2C)ccc1F | active: 0.13 µM | 
NC(=O)c1cccc(-c2ccnc3c2CC(C(=O)NCCc2ccccc2)O3)c1 (centres undefined) | inconclusive [cytotoxic, single point] | 
O=c1c(Cl)c(Cl)cnn1-c1ccccc1 | active: 4.11 µM | 
C[C@H](Cc1ccccc1)Nc1ncnc2c1ncn2[C@@H]1O[C@H](CO)[C@@H](O)[C@H]1O | inconclusive [rising, single point] | 
Nc1sc(Cc2ccccc2)cc1C(=O)c1c(-c2ccccc2)[nH]c2ccccc12 | active: 7.31 µM | 
O=C(NNc1ccc(-c2csnn2)cc1)c1cc(Cl)cc(Cl)c1 | inconclusive [cytotoxic, full curve, poor fit] | 
COc1ccc(NC(=O)CN(C)CC(=O)Nc2cccc(F)c2)cc1Cl | inconclusive [cytotoxic, partial curve] | 
COc1ccccc1Cn1c(C(C)C)nc2ccccc21 | inactive | 
COc1ccc(-c2nn(-c3ccccc3)cc2/C=N/Nc2ccc(S(N)(=O)=O)cc2[N+](=O)[O-])cc1OC | inconclusive [cytotoxic, single point] | 
CC(=O)Nc1ccc(NC2=C(Cl)C(=O)c3ccccc3C2=O)cc1 | active: 4.61 µM | 
Cc1nnc(N2C(=O)c3cccc4c([N+](=O)[O-])ccc(c34)C2=O)s1 | inconclusive [cytotoxic, single point] | 
COc1ccccc1N1C(N)=NC(N)=NC12CCCCC2 | inactive | 
CCOc1ccc(-c2cc(C(=O)NCCOC)[nH]n2)c(C)c1 | inactive | 
CCOc1ccc(NC(=O)c2cc3ccccc3cc2OC)cc1 | inconclusive [cytotoxic, partial curve] | 
COC(=O)c1ccccc1S(=O)(=O)N1CCC(C(=O)N(C)CCOc2ccccc2)CC1 | inactive | 
Cc1cc(Br)cn2c(Cc3ccccc3)c(C3CCCCC3)nc12 | inactive | 
O=c1cc(C(F)(F)F)[nH]c2c(OC(F)(F)F)cccc12 | inconclusive [cytotoxic, partial curve, poor fit] | 
CN(C)c1nc(N)nc(CSc2nnnn2-c2ccc(F)cc2)n1 | inactive | 
O=C(Cc1nc2ccccc2[nH]1)c1ccc([N+](=O)[O-])cc1 | inconclusive [cytotoxic, single point] | 
Cc1nnsc1C(=O)N/N=C/c1ccccc1Cl |  | inconclusive: 35.5%
CSCc1cc(N2CCOCC2)nc(SCc2ccc(Cl)c(Cl)c2)n1 | inconclusive [cytotoxic, partial curve, poor fit] | 
CC1CCN(S(=O)(=O)c2ccc(C(=O)Nc3nnc(-c4ccncc4)o3)cc2)CC1 | inconclusive [cytotoxic, full curve] | 

Source: PubChem BioAssay AID686970 (National Center for Advancing Translational Sciences (NCATS), 2013)
